The record followed here is PubChem BioAssay (NCI).

Holding throughout (assay): NCI-60 one-dose screen, 48 h (100 = growth as untreated, 0 = no growth, -100 = all killed)
One assay concerns SF-295 CNS. Particulars: 2.5 mM; runs of 2000.
The next assay has as its system SF-539 CNS. Particulars: 2.5 mM.
The next assay has as its system UACC-257 melanoma. The note with it: 2.5 mM.

The source holds several records for some structures; these can differ, active in one and inactive in another.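 Growth was measured after 48 h exposure to one concentration of compound in 96-well plates. Values under 10 count as active.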 A number of entries come with more than one value. They are shown here; other results are not. There may be further records. This drug was run again and again over the years, at its own concentration, as given; each value is one run. Counts like (3×) count equal records among those shown.

For the molecule `O=c1[nH]cc(F)c(=O)[nH]1`, the growth result with SF-295 CNS was “active: 3.81, 0.483, 0.497, 0.713%”; with SF-539 CNS (runs of 1991) it was “active: -27.6, -33, -35.5, -27.1, -31.8, -39.4, -38.6, -20.2, -61.5, -22.8, -58.8, -18.5, -30.7, -19, -39.2, 0.419, 5.86, 9.83, -65.5, -49.8%”; with SF-539 CNS (runs of 1992), “active: -24.7, -47.1, -3.12, -56.5, -58.9, -13, -62.2 (3×), -16.5, -23.4, -1.93, -14.1 (2×), -19.4 (2×), -12.2, -67.7, -12.3, 0.306, -25.8, 6.33, -32.8, -34.7, -24.5, -44.1, -36.4, -44.5, -50, -76.6, 6.6, -61.5, 0.846, 1.48, -16.3, 4.72, -52.3, -42.7, 3.45, -81.1, -5.27, -40.8, 8.53, -42.1, -0.738, -30.2, -33.5, -63.9, -78.7, -64.5, -71, -12.1, -49.2, -36.6, -8.55, -26.9 (2×), -52.5, -26.7, -23.2, -78.1, -22.9, -79.9, -19.3, -56.9, -55.2, -36.7, -53.1, -26.8, -28.9, 3.01, -6.92, -35.8, 1.67, -82.3, -74.4, -30.7, -34.1, -26.5, -27.3, -5.9, -60.1, -20.5, -69.7, -33, -1.02, -35.2, -78.6, -67.4, -48, -43.3, -25.6, -69.9, -84.2, -18.9, -1.94% and inactive: 11.5 (2×), 13.7, 12.8, 27.7, 17.7, 58.4, 12.6, 11.3 (2×), 31.9, 56.3, 13.6, 17.2, 33.2, 25.7, 15%”; in the assay on SF-539 CNS (runs of 1993), “active: 0.132, 0.243, 0.0315, -37.7, -50.1, -57.6, -13.2, -66.1, -42.3, -78.2, -45.7, -18.3, 1.78, -24.2, -62.7, -27.3, -21.7, -16.4, 3.98, 3.78, -64.8, -14.7, -26.1, -14.5, 9.13, -30.5, -46.2, -59.4, -1.84, -12.3, -24.7, -25.4, -30.8, -22.3, -53.9, -53.2, -17.2, -40.6, -43.8% and inactive: 14.3, 14.8, 22.6, 95, 84.8%”; in the assay on SF-539 CNS (runs of 1994), “active: 3.08, -21, -33.5, -8.2, -34.9, -68.8, -67, -23, -20.1, -7.06, -20, 0, 8.18, -61.2, -28.2, 1.55, -24.2, -65.6, 6.49, -1.21, -24.5, -0.94, -51.7, -73.8, 3.3, 8.78, -41.2, 7.06, 7.42% and inactive: 11%, 18.9%, 12.1%”; in the assay with SF-539 CNS (runs of 1995), “active: 2.26, -39.9, -16.5, 7.93, -4.08, 9.76, -77.2, 4.99, -37.7, -28.1, 0.279, -15.3, -54.8, -8.87, -52.5, -17.1, -50.1, -24.7, 0.289, -72.9, -28.2, 2.38, -3.99, 0.74, -0.419, -13.4, 0.174, -29, 0.492, -46.4, -40.2, -55.9, -20.6, -67.2, -34.6, -2.14, -57.7% and inactive: 12.3%”. Besides, the growth entry in the assay on SF-539 CNS (runs of 1996) was “active: 4.93, -7.87, -68, -44.6, -22.4, 9.23, -70.7, -67.5, 3.65, -50.6, -25, -26.4, -33.9 (2×), 8.31, 6.62, -15.1, 0.537, -25.6, -29, -26, -17, 9.92, -8.28, -5.96, 4.12, -2.78, -4.11, -43.5, -27.8, -14.4, 3.42, -19.9, -19.3, -74.4, -22.2, -7.27, -26.7, -45.3, -35% and inactive: 26.6, 14.9, 10.4, 16.4, 20, 15.4, 27.4, 24.1, 34.2, 42.3, 32%”; with SF-539 CNS (runs of 1997) it was “active: 4.71, -22.3, -13.2, -23.7, -53.1, 6.05, -1.3, 4.84, -11.5, -48.2, 5.56, 3.34, -11.3, -13.1, -52.1, 4.94, 4.48, 7.06, -31.9, 1.45% and inactive: 15.4, 13.3, 131, 20.4, 15, 31.8, 18.6, 13.4, 11.1, 12.8, 27.4, 15.9, 32.6, 24.4, 10.5%”; in the assay with SF-539 CNS (runs of 1998), “inactive: 16.2, 25.5, 35.8, 27, 27.7, 21.8, 17.5, 19.1, 20.6, 20.2% and active: -52.3, -19.1, 5.07, 3.3, -19.7, 4.74, 4.3, -28.9, -39.3, -4.98, -18.9%”; in the assay on SF-539 CNS (runs of 1999), “inactive: 30.7%, 28%, 11.7% and active: 7.02, -50.4, -81.8, 0.0623, 1.82, 1.11, -14.4%”; in the assay on SF-539 CNS (runs of 2000), “active: -26.5, -14.7, 0.262, -26.6%”; in the assay with UACC-257 melanoma (runs of 1991), “active: -21, 8, 9.24, 9.28, 4.56, -11.8, 4.29, 0.208, 4.31, -2.93, -3.08% and inactive: 16, 32.5, 13.3, 40, 28.7, 16.6, 21.1%”. In addition, the growth entry in the assay on UACC-257 melanoma (runs of 1992) was “active: -5.71, 3.18, 5.39, -2.43, 7.66, -9.4, 6.1, -9.6, -13.5, 1.76, -6.46, -6.5, -22.3, -1.94, 4.34, 1.83, -2.09, 5.18, 8.58, -7.83, 8.64, -20.5, -16.9, 1.33, -6.67, -8.35, -2.03, 7.91, -13.2, 7.21, -32.1, -14.2, 4.55, -6.6, 4.45, 7.48, -14.4, -17.3, -6.25, -8.76, 5.58, -3.95, -6.82, 9.36, -5.53, -15.3, 2.68, 5.46, 4.81, 9.88, -3.7, 9.68, 3.48% and inactive: 10.9, 31.7, 11.8, 13.7, 38.3, 34.5, 31, 17.3 (2×), 54.4, 25.6, 31.8 (2×), 17.8, 14.2, 19.6, 14, 37.3, 33.5 (2×), 34.2 (2×), 23, 28.3, 16.7, 29.1, 28.6, 11, 10.3, 14.3, 22.8 (2×), 44.5, 30.3, 31.9, 112, 16.6, 11.2, 13.4, 38.6, 38, 22.7 (2×), 15.2, 42.9, 22.3, 12.1, 51.8, 49, 38.7, 13.2, 23.4, 28.5, 31.6, 15.8, 16.2, 24, 10, 26.7, 30.9, 43.9, 23.7, 29.6, 34.9, 25.7%”; with UACC-257 melanoma (runs of 1993), “active: -0.954, -14.5, 4.77, 6.59, 7.93, -8.53, 8.69, 3.52, 4.56% and inactive: 16.7, 36.3, 40.5, 11.7, 22.6, 14.1, 40, 23.8, 31.6, 28.9, 29.2, 39.5, 24.8, 37.5 (2×), 12.4, 12.2, 16.9, 17.1, 30.1, 22.5 (2×), 28.6, 28.4, 26.5, 16.3, 18.5, 76.4, 21.7, 128, 32.4, 22.8, 24.7, 41.3%”; with UACC-257 melanoma (runs of 1994), “inactive: 37.4, 20.6, 12.7, 24.2 (2×), 13.8, 11.9, 25.6, 22.3, 18.7, 24.9, 14.6, 35.2, 22.6, 11.6, 27.6, 34.2, 30.6, 29.5, 37.8, 10.1, 34.5, 22.9, 54.1, 34.8, 30, 25.9, 23.8, 20.3, 26.7, 24.7% and active: -2.22%, -27.4%”.
